Measured values taken from the supplement of paper PMC10600219.
Counter-ions that a name gives are not always drawn. The full ranking holds about 2,800 compounds; the median of “cell viability relative to vehicle” is about 0.98, and the lowest 2% start at about 0.45. The list shows a part of the results.

system: NCI-H2228 alectinib-DTP; assay: cell viability relative to vehicle (fraction of vehicle); NCI-H2228 is an ALK-positive lung cancer line and DTP means drug-tolerant persister; higher = less growth inhibition; conditions: 100 nM; treatment time 6 days
Summary of the method: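 Values give cell viability as a fraction of vehicle-treated cells. Parental and drug-tolerant persister NCI-H2228 cells (persisters made with 1000 nM of a targeted drug for 13 days) were exposed in 384-well plates to the 3114-agent TargetMol anti-cancer compound library at 100 nM, with DMSO as vehicle. ATP was then read after 6 days by the CellTiter-Glo 3D Cell Viability Assay.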

Row | SMILES | cell viability
1 | CCCCCCCC(=O)c1c(O)cc(O)cc1CC(=O)OCC [Cytosporone B] | 1.11
2 | CC(CN(C)C)CN1c2ccccc2CCc2ccccc21 (stereo not given) [Trimipramine maleate] | 1.03
3 | CN1CCN(c2ccc(C(=O)Nc3cc(-c4cccc(NS(=O)(=O)c5ccccc5)c4)[nH]n3)cc2)CC1 | 0.98
4 | O=C(c1ccccc1)c1ccc2nc(NC(=O)c3csc(C4CCN(c5ncnc6ccsc56)CC4)n3)[nH]c2c1 | 0.998
5 | CCc1ccc(OCC(=O)Nc2ccc(F)c([N+](=O)[O-])c2)cc1 | 0.967
6 | C[C@H]1COC2(CCN(c3nc(=O)c4cc(C(F)(F)F)cc([N+](=O)[O-])c4s3)CC2)O1 | 1.05
7 | CC(C)C(=O)c1c(C(C)C)nn2ccccc12 [Ibudilast] | 1
8 | CC(=O)NC(CC(C)C)C(=O)O (stereo not given) [Acetylleucine] | 1.01
9 | CCS(=O)(=O)N1CCN(c2ccc(Nc3ncc(C(N)=O)c(NC4CC4)n3)cc2)CC1 [Cerdulatinib] | 0.779
10 | COc1cc2ccc(=O)oc2cc1OC [Scoparone] | 0.976
11 | C=C1CC[C@H](O)C/C1=C/C=C1\CCC[C@]2(C)[C@@H]([C@H](C)/C=C/[C@H](C)C(C)C)CC[C@@H]12 [Vitamin D2] | 1.13
12 | Cc1ccc(C(=O)N(CCCN)[C@@H](c2oc3cc(Cl)ccc3c(=O)c2Cc2ccccc2)C(C)C)cc1 | 0.675
13 | CC(C)(C)NC(=O)[C@H]1CC[C@H]2[C@@H]3CC[C@H]4NC(=O)C=C[C@]4(C)[C@H]3CC[C@]12C [Finasteride] | 1.14
14 | Cc1ccc(C(=O)Cn2c3c(sc2=N)CCCC3)cc1 [Pifithrin-α] | 0.76
15 | C=CC[N+]1([C@H]2C[C@H]3[C@@H]4CC[C@H]5C[C@H](O)[C@@H](N6CCOCC6)C[C@]5(C)[C@H]4CC[C@]3(C)[C@H]2OC(C)=O)CCCC1 [Rocuronium bromide] | 1.06
16 | COc1ccc(C=C(C#N)c2cccnc2)cc1OC | 0.956
17 | C[C@]12CC[C@H](O)CC1=CC[C@@H]1[C@@H]2CC[C@]2(C)C(c3cccnc3)=CC[C@@H]12 [Abiraterone] | 0.996
18 | CC(C)(C)CC(C)(C)c1ccc(OCCOCC[N+](C)(C)Cc2ccccc2)cc1 [Benzethonium chloride] | 1.1
19 | Cn1nnc2c(C(N)=O)ncn2c1=O [Temozolomide] | 0.905
20 | C=C1C(=O)O[C@H]2[C@H]1CC/C(C)=C/CC[C@@]1(C)O[C@@H]21 [Parthenolide] | 1.01

Row | SMILES | cell viability
21 | COc1ccc(CCC(=O)Nc2nc3ccc(Cl)cc3s2)cc1OC | 0.889
22 | Nc1ccccc1C(=O)C[C@H](N)C(=O)O [L-Kynurenine] | 0.987
23 | CC(=O)OCC(=O)[C@@]1(O)CC[C@H]2[C@@H]3CCC4=CC(=O)C=C[C@]4(C)[C@H]3[C@@H](O)C[C@@]21C [Prednisolone-21-acetate] | 0.849
24 | O=C1NC(c2cccc([N+](=O)[O-])c2)=CCN1c1ccccc1O | 0.806
25 | COC(=O)N[C@H](C(=O)N1CC2(CC2)C[C@H]1c1nc(-c2ccc3c(c2)C(F)(F)c2cc(-c4ccc5[nH]c([C@@H]6[C@H]7CC[C@H](C7)N6C(=O)[C@@H](NC(=O)OC)C(C)C)nc5c4)ccc2-3)c[nH]1)C(C)C [Ledipasvir] | 1.16
26 | COc1ccc(CNc2nc(N3CCC[C@H]3CO)ncc2C(=O)NCc2ncccn2)cc1Cl [Avanafil] | 0.984
27 | CN1CCN(C(=O)c2cc3cc(Cl)ccc3[nH]2)CC1 | 1.04
28 | CC(ONC(=O)c1cc(C(F)(F)F)cc(C(F)(F)F)c1)C(=O)Nc1ccc(Cl)cc1 (stereo not given) | 1.02
29 | N#CC1(c2ccc(NC(=O)c3cccnc3NCc3ccncc3)cc2)CCCC1 [Apatinib] | 0.864
30 | OC[C@@H](O)CN1CCN(c2ccccc2)CC1 [Levodropropizine] | 1.03
31 | Cc1c(Nc2ncccc2C(=O)O)cccc1C(F)(F)F [Flunixin meglumin] | 1.06
32 | O=C(/C=C/c1cccnc1)NCCCCC1CCN(C(=O)c2ccccc2)CC1 | 0.452
33 | NCCc1ccc(O)c(O)c1 [Dopamine hydrochloride] | 0.957
34 | Nc1nc(N)c2nc(-c3cccc(O)c3)c(-c3cccc(O)c3)nc2n1 | 0.859
35 | Cn1cnc2c(F)c(Nc3ccc(Br)cc3Cl)c(C(=O)NOCCO)cc21 [Selumetinib] | 0.927
36 | COc1cc(/C=C/C=O)ccc1O [Coniferyl aldehyde] | 1.08
37 | CCOC(=O)c1c2c3c(cccc3[nH]c1=O)C(=O)c1ccccc1-2 | 0.964
38 | C[C@H](CS)C(=O)N1CCC[C@H]1C(=O)O [Captopril] | 0.999
39 | C=CC(=O)N[C@H]1CCOC[C@H]1Nc1ncc2cc(-c3c(Cl)c(OC)cc(OC)c3Cl)ccc2n1 | 0.906
40 | Cc1c(-c2ccc(-c3ccccc3F)cc2)nc2ccc(F)cc2c1C(=O)O [Brequinar] | 0.906
